Out of some 310,000 compounds screened, about 18,000 (5.8%) were called active. Inconclusive results, whose numbers are uncertain, are shown with a selection of clear calls. The call rests on the fitted dose curve; in most records, active means well fitted inhibition curve with a large enough effect; inconclusive means small, poorly fitted or top-dose-only effect, or another doubt; inactive means no such curve, though single readings can be large or run the other way. No potency is given beside an inconclusive call; the fits are too rough.
Experiment: Primary qHTS for delayed death inhibitors of the malarial parasite plastid, 48 hour incubation
Details: P. falciparum luciferase growth in erythrocytes; series mostly up to 28.7 µM; activity change, negative = inhibition: at the top concentration
How it was run: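 In quantitative HTS format, infected erythrocytes bearing luciferase-reporter parasites were treated for a single generation at 37 C. Luminescence after adding detection reagent served as the growth measure.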
With COc1cc(CCN2C(=O)N[C@@H](c3cccc(C(F)(F)F)c3)C(C(C)=O)=C2C)cc(OC)c1OC the Potency was active: 13.1 µM.
In the case of Fc1ccc(NC(=S)NCCN2CCOCC2)cc1, the Potency is reported as inconclusive [inhibitor, partial curve, poor fit].
In the case of CCOC(=O)Cc1csc(NC(=O)CSc2ncnc3c2cnn3-c2ccccc2Cl)n1, the Potency is reported as active: 7.38 µM.
In the case of CNCc1c(OCc2ccc(F)cc2)ccc2ccccc12, the Potency is reported as active: 14.7 µM.
With Cn1cc(C(=O)NCc2ccccc2)c2ccccc21 the Potency was inconclusive [inhibitor, single point].
In the case of COc1cc(CN2CC=C(c3ccc(F)cc3)CC2)cc(OC)c1, the “activity change, negative = inhibition” value is reported as inactive: -3.6%.
With OCC1(CCOc2ccccc2)CCN(Cc2cccn2-c2ncccn2)CC1 the Potency was inconclusive [inhibitor, single point].
For CCOC(=O)c1sc2nc(CC(=O)OC)nc(NCCN3CCOCC3)c2c1C, the Potency was inconclusive [inhibitor, single point].
For CCOC(=O)NC1(C(F)(F)F)C(=O)N(Cc2ccccn2)C2=C1C(=O)CC(C)(C)C2 (centres undefined), the “activity change, negative = inhibition” value was inactive: 12.6%.
In the case of O=c1[nH]c(Cc2ccccc2)nc2ccccc12, the “activity change, negative = inhibition” value is reported as inactive: 8.08%.
With Cc1cccc(C)c1NC(=O)CN(C)CC(=O)Nc1ccc(F)c(Cl)c1 the Potency was inconclusive [inhibitor, single point].
For CCn1c(NC(=O)c2ccccc2)nc2ccccc21, the Potency was active: 11.7 µM.
For CN(C)CCCN(C(=O)c1ccc(S(=O)(=O)N2CCCCCC2)cc1)c1nc2ccc(Br)cc2s1, the Potency was inconclusive [inhibitor, single point].
In the case of COc1ccc(C(CNC(=O)c2cccc(S(=O)(=O)Nc3ccccc3OC)c2)N2CCOCC2)cc1 (centres undefined), the Potency is reported as inconclusive [inhibitor, single point].
With Cc1nnc(NC(=O)CSc2nnc(-c3ccc(S(=O)(=O)N4CCCC4)cc3)n2C)s1 the Potency was inconclusive [inhibitor, partial curve].
With C=Cn1ccnc1P(=S)(c1ccn(C)c1)c1nccn1C=C the “activity change, negative = inhibition” value was inactive: -1.02%.
With O=C(Nc1cccc(-c2nc3ncccc3o2)c1)c1ccccc1 the Potency was inconclusive [inhibitor, single point].
With Cc1ccc(C)c(N2CCN(C(=O)CCS(=O)(=O)c3ccc4c(c3)NC(=O)CO4)CC2)c1 the Potency was inconclusive [inhibitor, single point].
In the case of COc1ccc(NC(=O)CS(=O)c2ccccc2Cl)cc1 (centres undefined), the “activity change, negative = inhibition” value is reported as inactive: 128%.
In the case of CCO[C@@H]1OC(C(=O)NCc2ccccc2)=C[C@H](C2CC2)[C@H]1CCCO, the Potency is reported as inconclusive [inhibitor, partial curve, poor fit].
With COc1ccccc1C(=O)NCCn1cc(SCC(=O)NCC2CCCO2)c2ccccc21 (centres undefined) the Potency was inconclusive [inhibitor, partial curve].
With Cc1cc(C)cc(-n2c(C)cc(/C=N\NC(=O)COc3cccc4cccnc34)c2C)c1 the Potency was inconclusive [inhibitor, partial curve].
In the case of COC(=O)CSc1nnc(CSc2nc(C)cc(C)n2)n1Cc1ccco1, the “activity change, negative = inhibition” value is reported as inactive: 20.4%.
With COC(=O)Nc1cc(C)nc2ccccc12 the Potency was inconclusive [inhibitor, single point].
With Cc1onc(-c2ccccc2Cl)c1C(=O)Nc1cccnc1 the Potency was inconclusive [inhibitor, single point].
For O=c1[nH]n(-c2ccc(F)cc2)c2ncccc12, the Potency was inconclusive [inhibitor, full curve, poor fit].
In the case of Cc1cc(C)nc(NC(=NCCc2c[nH]c3ccccc23)NC(=O)Nc2ccc(Cl)cc2)n1, the Potency is reported as active: 2.94 µM.
With O=C(COC(=O)c1cc(S(=O)(=O)N2CCCCC2)ccc1N1CCOCC1)c1ccc(F)cc1 the Potency was inconclusive [inhibitor, single point].
For CSC1=NCCCN1C(=O)c1c(-c2ccccc2Cl)noc1C, the Potency was inconclusive [inhibitor, full curve, poor fit].
In the case of CCN(CC)S(=O)(=O)c1ccc(NC(=O)c2ccc(Sc3nncn3C)c([N+](=O)[O-])c2)cc1, the Potency is reported as active: 11.7 µM.
For COc1cc(OC)c(C(=O)/C=C/c2ccccc2)c(O)c1O, the Potency was inconclusive [inhibitor, single point].
In the case of CN(Cc1ccccc1Cl)C(=O)C1CCC(=O)N(C2CCCCCC2)C1 (centres undefined), the Potency is reported as inconclusive [inhibitor, single point].
With COc1cccc(NC(=S)NCc2ccc(F)cc2)c1 the Potency was inconclusive [inhibitor, partial curve, poor fit].
With Cc1ccc(NC(=O)c2ccccn2)cc1S(=O)(=O)N1CCOCC1 the Potency was inconclusive [inhibitor, full curve, poor fit].
In the case of Cn1cc(C(=O)NC2CCCCC2)c(=O)c2cc(S(=O)(=O)N3CCOCC3)ccc21, the Potency is reported as inconclusive [inhibitor, single point].
For CC1CCc2c(sc3nc(CN4CCN(S(=O)(=O)c5ccccc5[N+](=O)[O-])CC4)[nH]c(=O)c23)C1 (centres undefined), the “activity change, negative = inhibition” value was inactive: -20.3%.
In the case of Cc1ccc(CNC(=O)CCC2CCCN(Cc3c(C)nn(C(C)C)c3C)C2)o1 (centres undefined), the “activity change, negative = inhibition” value is reported as inactive: -2.93%.
For Cn1cc(CN2CCC(Oc3ccc(C(=O)N4CCCC4)cc3)CC2)cn1, the “activity change, negative = inhibition” value was inactive: 4.43%.
In the case of O=C(NN=C1C2CC3CC(C2)CC1C3)c1cccc(S(=O)(=O)N2CCOCC2)c1, the “activity change, negative = inhibition” value is reported as inactive: 14.2%.
For O=C(Nc1ccccc1)C1CCCN1C(=O)Nc1ccccc1[N+](=O)[O-] (centres undefined), the “activity change, negative = inhibition” value was inactive: 17.6%.
With CCOC(=O)/C(C#N)=C/c1cc2ccccc2nc1Cl the Potency was inconclusive [inhibitor, single point].
In the case of O=C(NC1CCN(C(=O)N2c3ccccc3Sc3ccccc32)CC1)c1ccco1, the Potency is reported as active: 1.65 µM.
In the case of CC(NC(=O)COc1ccc(N(C)S(=O)(=O)c2ccccc2)cc1)c1ccccc1 (centres undefined), the Potency is reported as inconclusive [inhibitor, partial curve].
In the case of CCOc1ccc2nc(CN3CCN(Cc4ccsc4)C(CCO)C3)ccc2c1 (centres undefined), the Potency is reported as inconclusive [inhibitor, single point].
On the % scale 0 is the no-effect control and ±100 the full control effect; potency means the concentration at half of the fitted maximal effect; tags describe the fitted curve by direction and shape.
